This passage reports binding results from PMC12425082.

Sequences of proteins named here, by UniProt entry; tags and fusion partners are left off.
UniProt P51149: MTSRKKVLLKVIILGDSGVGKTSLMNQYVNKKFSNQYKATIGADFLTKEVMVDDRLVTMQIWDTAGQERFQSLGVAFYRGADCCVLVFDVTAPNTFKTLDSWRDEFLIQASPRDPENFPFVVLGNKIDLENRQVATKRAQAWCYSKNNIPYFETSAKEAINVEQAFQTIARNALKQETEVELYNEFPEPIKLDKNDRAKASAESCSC
UniProt Q9Y4G2: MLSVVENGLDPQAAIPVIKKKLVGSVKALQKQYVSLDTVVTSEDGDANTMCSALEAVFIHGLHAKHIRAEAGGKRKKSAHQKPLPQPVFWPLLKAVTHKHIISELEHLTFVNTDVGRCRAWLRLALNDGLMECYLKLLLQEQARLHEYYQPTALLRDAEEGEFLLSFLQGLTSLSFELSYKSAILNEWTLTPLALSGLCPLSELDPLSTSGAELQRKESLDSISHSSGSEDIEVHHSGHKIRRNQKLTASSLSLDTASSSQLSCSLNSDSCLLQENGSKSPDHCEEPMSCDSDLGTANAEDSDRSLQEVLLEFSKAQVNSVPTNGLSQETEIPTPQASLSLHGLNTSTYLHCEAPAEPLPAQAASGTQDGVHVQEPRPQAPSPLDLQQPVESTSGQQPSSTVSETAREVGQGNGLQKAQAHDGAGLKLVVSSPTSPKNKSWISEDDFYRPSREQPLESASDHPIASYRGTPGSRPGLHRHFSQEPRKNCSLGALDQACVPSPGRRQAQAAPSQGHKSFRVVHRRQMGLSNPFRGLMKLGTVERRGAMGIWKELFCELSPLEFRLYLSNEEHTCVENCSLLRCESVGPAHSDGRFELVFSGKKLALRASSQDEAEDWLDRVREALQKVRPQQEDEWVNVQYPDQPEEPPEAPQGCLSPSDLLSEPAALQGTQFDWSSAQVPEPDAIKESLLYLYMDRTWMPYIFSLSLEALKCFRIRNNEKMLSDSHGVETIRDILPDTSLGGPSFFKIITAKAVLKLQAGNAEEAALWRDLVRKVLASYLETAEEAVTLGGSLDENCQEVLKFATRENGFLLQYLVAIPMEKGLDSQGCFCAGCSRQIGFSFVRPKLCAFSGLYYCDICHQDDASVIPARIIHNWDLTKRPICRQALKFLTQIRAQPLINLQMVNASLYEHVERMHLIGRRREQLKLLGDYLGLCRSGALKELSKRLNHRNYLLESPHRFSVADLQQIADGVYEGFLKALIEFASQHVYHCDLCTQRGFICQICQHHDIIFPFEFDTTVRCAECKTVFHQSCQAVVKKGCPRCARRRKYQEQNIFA
UniProt Q9GZU1: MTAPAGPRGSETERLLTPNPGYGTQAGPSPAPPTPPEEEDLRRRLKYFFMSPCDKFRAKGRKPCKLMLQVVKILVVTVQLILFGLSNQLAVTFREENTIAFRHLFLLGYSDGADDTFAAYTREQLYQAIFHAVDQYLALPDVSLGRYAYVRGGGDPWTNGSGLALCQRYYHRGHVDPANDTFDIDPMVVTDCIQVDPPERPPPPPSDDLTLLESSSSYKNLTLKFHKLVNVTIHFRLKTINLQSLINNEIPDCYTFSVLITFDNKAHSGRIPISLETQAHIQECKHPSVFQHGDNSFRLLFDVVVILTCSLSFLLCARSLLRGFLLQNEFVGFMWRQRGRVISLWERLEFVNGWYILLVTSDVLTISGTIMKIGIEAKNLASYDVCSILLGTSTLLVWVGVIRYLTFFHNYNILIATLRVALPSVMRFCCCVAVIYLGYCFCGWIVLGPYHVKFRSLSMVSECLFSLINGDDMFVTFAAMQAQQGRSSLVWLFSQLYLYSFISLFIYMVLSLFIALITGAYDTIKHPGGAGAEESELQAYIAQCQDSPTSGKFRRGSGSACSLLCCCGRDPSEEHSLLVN
UniProt Q9NVJ2: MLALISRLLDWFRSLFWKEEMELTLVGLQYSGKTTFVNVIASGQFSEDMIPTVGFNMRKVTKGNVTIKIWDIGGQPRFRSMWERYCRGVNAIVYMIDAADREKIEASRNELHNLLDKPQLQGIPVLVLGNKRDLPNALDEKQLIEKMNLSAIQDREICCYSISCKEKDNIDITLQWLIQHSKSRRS

Holding throughout (experiment): co-IP; BON cells co-expressing GFP-tagged candidates and 3xHA or 3xFlag Munc13-4; lysis in 50 mM HEPES pH 7.5, 150 mM NaCl, 1% Triton X-100; GFP selector (GFP nanobody) beads, 4°C; western blot
Background: In western blotting, separated proteins are transferred to a membrane and probed.

The target in test [1] is GFP-tagged Rab7 (UniProt P51149).
In test [2] the target is T1, GFP-tagged VPS39 (UniProt Q96JC1).
T1 sequence: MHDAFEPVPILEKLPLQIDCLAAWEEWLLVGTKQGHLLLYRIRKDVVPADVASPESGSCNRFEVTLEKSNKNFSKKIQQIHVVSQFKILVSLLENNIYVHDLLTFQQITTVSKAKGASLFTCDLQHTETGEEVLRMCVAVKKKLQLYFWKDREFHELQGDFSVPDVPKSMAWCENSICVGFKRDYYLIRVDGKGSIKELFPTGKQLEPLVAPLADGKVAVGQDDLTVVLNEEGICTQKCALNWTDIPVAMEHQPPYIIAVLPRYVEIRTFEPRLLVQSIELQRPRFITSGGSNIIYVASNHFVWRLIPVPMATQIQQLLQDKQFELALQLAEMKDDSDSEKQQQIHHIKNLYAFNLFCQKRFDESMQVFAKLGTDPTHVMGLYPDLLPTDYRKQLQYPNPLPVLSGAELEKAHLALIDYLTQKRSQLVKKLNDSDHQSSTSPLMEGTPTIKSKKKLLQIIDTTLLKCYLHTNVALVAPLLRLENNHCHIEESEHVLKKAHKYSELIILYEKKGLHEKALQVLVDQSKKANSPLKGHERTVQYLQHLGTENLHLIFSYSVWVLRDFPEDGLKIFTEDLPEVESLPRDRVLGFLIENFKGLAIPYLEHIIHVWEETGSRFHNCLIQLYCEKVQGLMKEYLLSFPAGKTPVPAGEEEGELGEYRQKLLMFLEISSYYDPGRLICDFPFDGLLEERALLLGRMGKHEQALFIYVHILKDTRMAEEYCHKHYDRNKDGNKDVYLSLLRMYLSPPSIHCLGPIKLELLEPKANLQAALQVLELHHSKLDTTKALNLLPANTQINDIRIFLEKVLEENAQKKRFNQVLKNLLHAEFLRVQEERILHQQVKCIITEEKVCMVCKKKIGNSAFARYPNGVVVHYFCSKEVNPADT

Test [3] addresses GFP-tagged PLEKHM1 (in BON cells) (UniProt Q9Y4G2).
In test [4] the target is GFP-tagged MCOLN1 (UniProt Q9GZU1).
For test [5], the target named is T2, GFP-tagged VPS18 (UniProt Q9P253).
T2 sequence: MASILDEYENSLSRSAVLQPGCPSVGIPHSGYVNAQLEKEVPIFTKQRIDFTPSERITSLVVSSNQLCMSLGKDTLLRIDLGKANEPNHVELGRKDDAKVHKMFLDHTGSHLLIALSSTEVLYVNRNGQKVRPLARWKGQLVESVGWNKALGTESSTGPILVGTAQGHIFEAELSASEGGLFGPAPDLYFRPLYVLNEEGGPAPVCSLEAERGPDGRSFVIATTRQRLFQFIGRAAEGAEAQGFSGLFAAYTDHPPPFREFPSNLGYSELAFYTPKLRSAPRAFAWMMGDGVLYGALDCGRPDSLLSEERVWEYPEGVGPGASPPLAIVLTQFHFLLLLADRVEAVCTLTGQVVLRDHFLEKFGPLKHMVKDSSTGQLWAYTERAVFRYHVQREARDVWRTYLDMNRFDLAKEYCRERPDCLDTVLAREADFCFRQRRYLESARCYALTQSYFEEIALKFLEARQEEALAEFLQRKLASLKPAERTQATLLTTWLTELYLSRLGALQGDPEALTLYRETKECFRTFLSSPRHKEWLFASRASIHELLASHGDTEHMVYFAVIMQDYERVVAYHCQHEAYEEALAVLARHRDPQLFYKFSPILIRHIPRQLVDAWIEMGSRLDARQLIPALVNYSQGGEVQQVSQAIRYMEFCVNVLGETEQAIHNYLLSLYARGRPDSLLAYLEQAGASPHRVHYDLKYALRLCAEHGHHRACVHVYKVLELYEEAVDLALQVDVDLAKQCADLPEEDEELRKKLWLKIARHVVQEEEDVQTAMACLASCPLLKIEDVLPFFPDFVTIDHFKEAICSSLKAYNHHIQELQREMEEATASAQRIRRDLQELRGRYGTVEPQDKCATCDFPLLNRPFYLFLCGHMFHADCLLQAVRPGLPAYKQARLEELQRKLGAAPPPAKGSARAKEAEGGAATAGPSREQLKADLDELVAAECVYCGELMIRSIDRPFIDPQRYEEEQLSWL

The target in test [6] is T3, GFP-tagged YKT6 (UniProt O15498).
T3 sequence: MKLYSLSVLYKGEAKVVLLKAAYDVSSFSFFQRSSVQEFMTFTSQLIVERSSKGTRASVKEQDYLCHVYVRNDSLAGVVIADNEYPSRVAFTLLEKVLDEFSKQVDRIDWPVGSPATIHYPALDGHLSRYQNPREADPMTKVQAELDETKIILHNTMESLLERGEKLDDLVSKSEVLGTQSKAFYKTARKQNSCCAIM

For test [7], the target named is GFP-tagged ARL8B (UniProt Q9NVJ2).
Test [8] deals with T4, GFP-tagged VPS16 (UniProt Q9H269).
T4 sequence: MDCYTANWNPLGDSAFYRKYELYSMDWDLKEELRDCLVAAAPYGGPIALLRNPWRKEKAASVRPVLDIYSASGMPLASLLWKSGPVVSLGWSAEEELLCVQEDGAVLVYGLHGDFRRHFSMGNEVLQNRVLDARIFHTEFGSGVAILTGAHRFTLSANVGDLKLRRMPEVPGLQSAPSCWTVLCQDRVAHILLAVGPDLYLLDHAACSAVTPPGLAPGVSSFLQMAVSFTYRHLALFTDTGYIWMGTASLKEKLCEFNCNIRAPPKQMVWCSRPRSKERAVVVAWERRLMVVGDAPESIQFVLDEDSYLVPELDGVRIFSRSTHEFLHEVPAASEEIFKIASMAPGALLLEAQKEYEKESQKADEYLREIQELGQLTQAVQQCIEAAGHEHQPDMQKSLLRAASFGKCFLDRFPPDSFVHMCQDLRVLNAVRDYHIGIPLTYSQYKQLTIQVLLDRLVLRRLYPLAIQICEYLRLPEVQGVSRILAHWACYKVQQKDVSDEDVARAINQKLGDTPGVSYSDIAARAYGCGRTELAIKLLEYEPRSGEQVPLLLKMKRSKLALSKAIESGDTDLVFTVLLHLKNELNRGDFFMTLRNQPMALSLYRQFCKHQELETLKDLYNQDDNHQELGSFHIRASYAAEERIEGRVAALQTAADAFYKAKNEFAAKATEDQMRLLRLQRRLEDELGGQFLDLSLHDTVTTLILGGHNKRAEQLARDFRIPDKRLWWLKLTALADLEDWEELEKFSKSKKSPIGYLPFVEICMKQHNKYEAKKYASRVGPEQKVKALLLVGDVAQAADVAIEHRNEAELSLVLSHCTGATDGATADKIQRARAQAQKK

No constants are given. Whether binding was seen depends on the method and setting. Binding seen in cells or lysates may run through a third protein. Some binding calls cover weakened binding; strength is not graded here. Where a sequence is shown, tags or fusion partners need not be part of it.

B1: HA-tagged Munc13-4 (protein, UniProt Q70J99 1-1090)
chain: MATLLSHPQQRPPFLRQAIKIRRRRVRDLQDPPPQMAPEIQPPSHHFSPEQRALLYEDALYTVLHRLGHPEPNHVTEASELLRYLQEAFHVEPEEHQQTLQRVRELEKPIFCLKATVKQAKGILGKDVSGFSDPYCLLGIEQGVGVPGGSPGSRHRQKAVVRHTIPEEETHRTQVITQTLNPVWDETFILEFEDITNASFHLDMWDLDTVESVRQKLGELTDLHGLRRIFKEARKDKGQDDFLGNVVLRLQDLRCREDQWYPLEPRTETYPDRGQCHLQFQLIHKRRATSASRSQPSYTVHLHLLQQLVSHEVTQHEAGSTSWDGSLSPQAATVLFLHATQKDLSDFHQSMAQWLAYSRLYQSLEFPSSCLLHPITSIEYQWIQGRLKAEQQEELAASFSSLLTYGLSLIRRFRSVFPLSVSDSPARLQSLLRVLVQMCKMKAFGELCPNTAPLPQLVTEALQTGTTEWFHLKQQHHQPMVQGIPEAGKALLGLVQDVIGDLHQCQRTWDKIFHNTLKIHLFSMAFRELQWLVAKRVQDHTTVVGDVVSPEMGESLFQLYISLKELCQLRMSSSERDGVLALDNFHRWFQPAIPSWLQKTYNEALARVQRAVQMDELVPLGELTKHSTSAVDLSTCFAQISHTARQLDWPDPEEAFMITVKFVEDTCRLALVYCSLIKARARELSSGQKDQGQAANMLCVVVNDMEQLRLVIGKLPAQLAWEALEQRVGAVLEQGQLQNTLHAQLQSALAGLGHEIRTGVRTLAEQLEVGIAKHIQKLVGVRESVLPEDAILPLMKFLEVELCYMNTNLVQENFSSLLTLLWTHTLTVLVEAAASQRSSSLASNRLKIALQNLEICFHAEGCGLPPKALHTATFQALQRDLELQAASSRELIRKYFCSRIQQQAETTSEELGAVTVKASYRASEQKLRVELLSASSLLPLDSNGSSDPFVQLTLEPRHEFPELAARETQKHKKDLHPLFDETFEFLVPAEPCRKAGACLLLTVLDYDTLGADDLEGEAFLPLREVPGLSGSEEPGEVPQTRLPLTYPAPNGDPILQLLEGRKGDREAQVFVRLRRHRAKQASQHALRPAP
Regarding B1, the binding result in test [1] is “no binding”; in test [2] it was “binds”; in test [3], “binds”; in test [4], “no binding”; in test [5], “binds”; in test [6] it was “no binding”.

B2: Flag-Munc13-4 (protein, UniProt Q70J99 1-1090)
chain: B1 chain
Turning to B2, the binding entry is reported as “no binding” in test [7] and “binds” in test [8].
